Measured values from the supplement of paper PMC10126150.
Values marked as one replicate rest on one cluster of the flow cell; about a third of the high ones do not repeat.

These sequences were tested on ATP (assay: switch fluorescence ratio, 500 uM ATP over buffer (Cy3 cluster intensity, sum of 5 cycles each) (fold (ratio)); higher = stronger signal-on switching upon ATP binding; sequences stand for … in TCGTCGGCAGCGTCAGATGTGTATAAGAGACAGTTTTTTTTTTTTTTTTTTTTTTTTT…TC). Settings: aptamer strand: ATP DNA aptamer (quencher-CACCTGGGGGAGTATTGCGGAGGAAGG + anchor), 100 nM annealed; ATP concentration: 500 uM; one replicate.
In short: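 Cy3-labelled switching-strand clusters on a modified Illumina MiSeq flow-cell were annealed to 100 nM quencher-labelled ATP aptamer and imaged first in selection buffer, then after 15 min with 500 uM ATP at 22 °C. NaOH stripping and re-annealing separated each of five buffer/ATP cycles, and clusters outside 100-1000 RFU were excluded. The fluorescence ratio sums target-cycle Cy3 intensity over buffer-cycle Cy3 intensity per cluster and averages it per switch-domain sequence.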
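Note: ATP exposure 15 min at 22 °C before imaging.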

| Sequence | switch fluorescence ratio |
| --- | --- |
| GACCAAACGA | 1.3 |
| GACCAAGGAG | 1.03 |
| GACCACGGTG | 1.52 |
| GACCAGGTTT | 1.12 |
| GACCATCCGA | 1.37 |
| GACCATTTT | 1.04 |
| GACCCAAGTA | 1.07 |
| GACCCACCCT | 1.37 |
| GACCCAGT | 1.12 |
| GACCCCGGCT | 1.02 |
| GACCCCTTGT | 1.04 |
| GACCCGAAGT | 0.974 |
| GACCCGACTG | 1.01 |
| GACCCTTCGC | 1.59 |
| GACCGACGTT | 1.31 |
| GACCGAGGGA | 0.983 |
| GACCGATAGA | 1 |
| GACCGCGAAT | 2.08 |
| GACCGGGGCG | 1.06 |
| GACCGTAGTT | 1.09 |
| GACCTCCATA | 1.12 |
| GACCTGAAAT | 1.08 |
| GACCTTAGTG | 1.03 |
| GACCTTATTG | 1 |
| GACCTTGGAG | 0.99 |
| GACCTTTTGT | 1.05 |

| Sequence | switch fluorescence ratio |
| --- | --- |
| GACGAACCAA | 2.36 |
| GACGAAGGAC | 2.03 |
| GACGAGGGGA | 1.18 |
| GACGATCTTC | 1 |
| GACGATGTTT | 1 |
| GACGCAGACT | 3.81 |
| GACGCCACG | 1.06 |
| GACGCCTTTG | 0.983 |
| GACGCGACGA | 1.46 |
| GACGCGAGGC | 2.63 |
| GACGCGGAA | 1.07 |
| GACGCGTCCC | 1.06 |
| GACGGAGCCT | 2.1 |
| GACGGAGTGG | 0.987 |
| GACGGCAGCA | 1.15 |
| GACGGCCCCC | 1.04 |
| GACGGCCTTT | 0.994 |
| GACGGCGTGC | 1.05 |
| GACGGGCCT | 0.979 |
| GACGGTACGG | 0.999 |
| GACGGTGTGA | 0.999 |
| GACGTATGCT | 0.985 |
| GACGTCAATT | 1 |
| GACGTGACCA | 1.3 |
| GACGTGGATT | 1.07 |
| GACGTTGCGG | 0.977 |

| Sequence | switch fluorescence ratio |
| --- | --- |
| GACGTTGGTG | 1.02 |
| GACTAAGAAG | 0.967 |
| GACTAATGAG | 0.962 |
| GACTATAGCA | 1.06 |
| GACTATATTT | 0.997 |
| GACTATGCCG | 0.98 |
| GACTCAGAAT | 1.06 |
| GACTCGGATA | 1.04 |
| GACTCGGTTG | 0.959 |
| GACTCTTAT | 1.05 |
| GACTCTTATG | 1.06 |
| GACTGACACC | 1.27 |
| GACTGACCCA | 1.13 |
| GACTGCAACT | 1.39 |
| GACTGCTAGA | 1.09 |
| GACTGCTTT | 0.981 |
| GACTGGATAC | 2.57 |
| GACTGGCAAA | 1.01 |
| GACTGGGTAT | 1.05 |
| GACTGTGTAC | 1.21 |
| GACTGTGTCC | 1 |
| GACTGTGTGG | 0.963 |
| GACTTATGCG | 1 |
| GACTTATGTT | 0.995 |
| GACTTCCGGT | 1.16 |
| GACTTCGGTT | 1 |

| Sequence | switch fluorescence ratio |
| --- | --- |
| GACTTGGAGC | 1.03 |
| GACTTTAACA | 1.06 |
| GACTTTTAAA | 1.04 |
| GAGAAACTGC | 1.02 |
| GAGAAAGTCA | 0.988 |
| GAGAAATTTA | 1.01 |
| GAGAACACGA | 1 |
| GAGAACGATG | 0.982 |
| GAGAAGAGTT | 0.964 |
| GAGAAGATGA | 0.985 |
| GAGAAGTGTT | 0.967 |
| GAGACATTTA | 1.04 |
| GAGACGAGGT | 1.03 |
| GAGACGTCTC | 0.956 |
| GAGACTATGG | 1.1 |
| GAGAGGTACG | 1.02 |
| GAGAGGTCT | 1.04 |
| GAGAGTATCA | 1.02 |
| GAGAGTTAGT | 1.01 |
| GAGATAATAT | 0.982 |
| GAGATACTAT | 1 |
| GAGATCCCAA | 1.01 |
| GAGATGGAAA | 0.979 |
| GAGATTAAC | 1.01 |
| GAGCAAAGCC | 0.99 |
| GAGCACACGA | 1.16 |

| Sequence | switch fluorescence ratio |
| --- | --- |
| GAGCACATTC | 2.17 |
| GAGCACGCGG | 1.04 |
| GAGCAGATG | 1.19 |
| GAGCAGGGAG | 1.06 |
| GAGCATCCGT | 1.03 |
| GAGCATCCTT | 0.99 |
| GAGCCCCGTA | 1.02 |
| GAGCCGAGGG | 0.963 |
| GAGCCGCAAC | 4.48 |
| GAGCCGCGCA | 0.996 |
| GAGCCGGCCG | 1.01 |
| GAGCCTAGAT | 1.17 |
| GAGCCTATCG | 0.941 |
| GAGCCTTAAG | 1.05 |
| GAGCGCCTTG | 0.998 |
| GAGCGGGAGC | 0.977 |
| GAGCGTAATG | 1.03 |
| GAGCGTAGAA | 0.991 |
| GAGCGTCCGA | 1.01 |
| GAGCTACAGG | 1.01 |
| GAGCTCCTTT | 0.992 |
| GAGCTCGGAA | 0.976 |
| GAGGAAAATG | 1.02 |
| GAGGAAAGAG | 1.01 |
| GAGGAAAGG | 0.991 |
| GAGGAACCAA | 1.01 |

| Sequence | switch fluorescence ratio |
| --- | --- |
| GAGGAAGAGG | 0.992 |
| GAGGACAAGA | 1.02 |
| GAGGACGCTG | 0.931 |
| GAGGATGTTC | 0.966 |
| GAGGCAGAGC | 1.11 |
| GAGGCCGACT | 0.99 |
| GAGGCCTTTT | 0.984 |
| GAGGCGACTT | 1.03 |
| GAGGCTCCGG | 0.977 |
| GAGGCTGAG | 0.927 |
| GAGGCTTAGT | 1.04 |
| GAGGGATGAT | 0.934 |
| GAGGGCACAA | 1.06 |
| GAGGGCATAG | 0.997 |
| GAGGGCCTCC | 0.997 |
| GAGGGCGATG | 0.969 |
| GAGGGCTGAA | 0.98 |
| GAGGGCTTTA | 1.01 |
| GAGGGGCGA | 1.02 |
| GAGGGGTGGC | 1.01 |
| GAGGGTGCG | 0.983 |
| GAGGGTGCGC | 1.4 |
| GAGGGTTCAC | 1.01 |
| GAGGTAAATT | 1 |
| GAGGTATAT | 0.999 |
| GAGGTCAATC | 1.13 |

| Sequence | switch fluorescence ratio |
| --- | --- |
| GAGGTCCCAG | 0.972 |
| GAGGTCTAAT | 1.01 |
| GAGGTCTATG | 1.02 |
| GAGGTCTTGG | 0.971 |
| GAGGTGGGG | 1.02 |
| GAGGTGTAG | 0.965 |
| GAGGTGTCTA | 0.992 |
| GAGGTTTTCT | 1 |
| GAGTAAGGTC | 0.892 |
| GAGTAAGTTG | 0.975 |
| GAGTACCCGT | 0.989 |
| GAGTAGCAGC | 1.01 |
| GAGTAGGCGT | 1.03 |
| GAGTAGTGAG | 0.955 |
| GAGTATCTGG | 0.977 |
| GAGTATTACG | 1.07 |
| GAGTATTATT | 0.974 |
| GAGTATTTGT | 0.998 |
| GAGTCCCCCA | 0.998 |
| GAGTCCCTGC | 1.09 |
| GAGTCCTCAT | 1 |
| GAGTCGGAAC | 0.977 |
| GAGTCGGCTT | 1 |
| GAGTCTGGAA | 1.25 |
| GAGTGAGAA | 0.97 |
| GAGTGAGCAT | 1.05 |

| Sequence | switch fluorescence ratio |
| --- | --- |
| GAGTGAGGAC | 0.954 |
| GAGTGCAGCA | 1.01 |
| GAGTGGAGTT | 1.01 |
| GAGTGGGAAA | 1.04 |
| GAGTGGTACG | 0.966 |
| GAGTGTAACA | 0.966 |
| GAGTGTAGCC | 1.07 |
| GAGTGTTACG | 1.05 |
| GAGTTAAGCT | 0.955 |
| GAGTTACTCG | 1.04 |
| GAGTTCAAGG | 0.974 |
| GAGTTCAGGC | 0.971 |
| GAGTTTACAT | 1.01 |
| GAGTTTATAA | 0.97 |
| GAGTTTATCT | 0.974 |
| GAGTTTCCC | 0.993 |
| GAGTTTCTAC | 0.951 |
| GAGTTTGGAT | 0.977 |
| GATAAAATCA | 0.934 |
